In one assay the test system is MKN1 cells. As to the kind of experiment: Inhibition of KRas-mediated phosphorylation of ERK (Cisbio HTRF pERK), MKN1 cells. Type of assay: cell-based. To be noted: Homo sapiens, MKN-1, 3 hour compound incubation. As for the experimental part:
(§1) Inhibition of KRas Phosphorylation of ERK (HTRF) by Exemplary Compounds of Formula (I) Cisbio HTRF Advanced pERK Assay Catalog #64AERPEH • Cells: MKN1, PSN1 • Procedure: • Day 1: Seed 6,000 cells/well -25 µl/well in 384-well white solid bottom plate; RPM1_10% FBS.
In general terms: In TR-FRET formats the signal depends on donor and acceptor labels being close together.

Another assay concerns PSN1 cells. Briefly: Inhibition of KRas-mediated phosphorylation of ERK (Cisbio HTRF pERK), PSN1 cells. Type of assay: cell-based. To be noted: Homo sapiens, PSN1, 3 h. The procedure:
as §1

The subject of the next assay is ASPC1 cells. Briefly: Inhibition of KRas-mediated phosphorylation of ERK (Cisbio HTRF pERK), ASPC1 cells. Type of assay: cell-based. As to conditions: Homo sapiens, AsPC-1 cells; for IC50: ASPC1, 3 h, 3 hr compound incubation; for inhibition at 0.1 µM: ASPC1, single point at 100 nM, 3 hrs compound incubation.
In the next assay the test system is H727 cells. Briefly: Inhibition of KRas-mediated phosphorylation of ERK (Cisbio HTRF pERK), H727 cells. Format: cell-based. To be noted: Homo sapiens; for IC50: NCI-H727, 3 h, 3 hr compound incubation; for inhibition at 0.1 µM: NCI-H727, single point at 100 nM, 3 hrs compound incubation.
Another assay has as its system A549 cells. Briefly: Inhibition of KRas-mediated phosphorylation of ERK (Cisbio HTRF pERK), A549 cells. Format: cell-based. To be noted: Homo sapiens; for inhibition at 0.1 µM: single point at 100 nM, 3 hrs compound incubation; for IC50: A549, 3 h, 3 hr compound incubation.
The next assay concerns H460 cells. As to the kind of experiment: Inhibition of KRas-mediated phosphorylation of ERK (Cisbio HTRF pERK), H460 cells. As to conditions: Homo sapiens; for inhibition at 0.1 µM: NCI-H460, single point at 100 nM, 3 hrs compound incubation; for IC50: NCI-H460, 3 h, 3 hr compound incubation. Format: cell-based.
Another assay concerns HCT116 cells. Briefly: Inhibition of KRas-mediated phosphorylation of ERK (Cisbio HTRF pERK), HCT116 cells. Format: cell-based. As to conditions: Homo sapiens; for inhibition at 0.1 µM: HCT-116, single point at 100 nM, 3 hrs compound incubation; for IC50: HCT-116, 3 h, 3 hr compound incubation.
For the next assay, the system named is H358 cells. Briefly: Inhibition of KRas-mediated phosphorylation of ERK (Cisbio HTRF pERK), H358 cells. Format: cell-based. As to conditions: Homo sapiens; for inhibition at 0.1 µM: NCI-H358, single point at 100 nM, 3 hrs compound incubation; for IC50: NCI-H358, 3 h, 3 hr compound incubation.
For a further assay, the target named is KRas WT (Homo sapiens, UniProt P01116). As to the kind of experiment: KRas binding assay (TR-FRET displacement), KRas WT. As to conditions: for IC50: TR-FRET displacement.
The target of another assay is KRas G12A (Homo sapiens, UniProt P01116, G12A). Type of assay: binding. To be noted: for IC50: TR-FRET displacement, read-out: Binding to KRas (IC50 nM) G12A.
A further assay concerns the target KRas G12C (Homo sapiens, UniProt P01116, G12C). Format: binding. As to conditions: for IC50: TR-FRET displacement, read-out: Binding to KRas (IC50 nM) G12C.
In another assay the target is KRas G12S (Homo sapiens, UniProt P01116, G12S). Format: binding. As to conditions: for IC50: TR-FRET displacement, read-out: Binding to KRas (IC50 nM) G12S.
The next assay concerns the target KRas G13D (Homo sapiens, UniProt P01116, G13D). Type of assay: binding. As to conditions: for IC50: TR-FRET displacement, read-out: Binding to KRas (IC50 nM) G13D.
The target in another assay is KRas Q61H (Homo sapiens, UniProt P01116, Q61H). Briefly: KRas binding assay (TR-FRET displacement), KRas Q61H. To be noted: for IC50: TR-FRET displacement.
Where [1] appears, read: 3 hour compound incubation, Cisbio pERK HTRF.

Take `CCc1c(F)ccc2cc(O)cc(N3CCc4c(nc(OC[C@@]56CCCN5C[C@H](F)C6)nc4N4CCCn5nc(C(=O)N6CC7CCC(C6)N7C)cc5C4)C3)c12` [Example 270]: the concentration for half-maximal inhibition (IC50) (commonly the midpoint of a concentration-inhibition curve) with MKN1 cells was 13.8 nM; with PSN1 cells (setting [1]), above 10000 nM; with ASPC1 cells (Cisbio pERK HTRF), 20 nM; in the assay with H727 cells (Cisbio pERK HTRF), 106 nM. The inhibition – broadly, the change of the read-out against control, counted positive when it falls – at 0.1 µM was 52% with A549 cells, 34% with H460 cells, 36% in the assay with HCT116 cells and 94% with H358 cells.
In turn, `CCc1c(F)ccc2cc(O)cc(N3CCc4c(nc(OC[C@@]56CCCN5C[C@H](F)C6)nc4N4CCCn5nc(CNS(C)(=O)=O)cc5C4)C3)c12` [Example 305, N-((5-(7-(8-ethyl-7-fluoro-3-hydroxynaphthalen-1-yl)-2-(((2R,7aS)-2-fluorohexahydro-1H-pyrrolizin-7a-yl)methoxy)-5,6,7,8-tetrahydropyrido[3,4-d]pyrimidin-4-yl)-5,6,7,8-tetrahydro-4H-pyrazolo[1,5-a][1,4]diazepin-2-yl)methyl)methanesulfonamide] yielded an IC50 in the assay on ASPC1 cells (Cisbio pERK HTRF) of 441 nM. For the same compound, the inhibition at 0.1 µM with A549 cells worked out at 4%; in the assay with H460 cells, 6%; in the assay with HCT116 cells, 18%; with H358 cells, 9%.
Take `CCc1c(F)ccc2cc(O)cc(N3CCc4c(nc(OC[C@@]56CCCN5C[C@H](F)C6)nc4N4CCCn5nc(CN(C)C(=O)NC)cc5C4)C3)c12` [Example 309, 1-((5-(7-(8-ethyl-7-fluoro-3-hydroxynaphthalen-1-yl)-2-(((2R,7aS)-2-fluorohexahydro-1H-pyrrolizin-7a-yl)methoxy)-5,6,7,8-tetrahydropyrido[3,4-d]pyrimidin-4-yl)-5,6,7,8-tetrahydro-4H-pyrazolo[1,5-a][1,4]diazepin-2-yl)methyl)-1,3-dimethylurea]: the IC50 is 484 nM with ASPC1 cells (Cisbio pERK HTRF) and 773 nM in the assay with H727 cells (Cisbio pERK HTRF). For the same compound, the inhibition at 0.1 µM in the assay with A549 cells is 7%; with H460 cells, 6%; with HCT116 cells, -8%; with H358 cells it was 12%.
On to `CCc1c(F)ccc2cc(O)cc(N3CCc4c(nc(OC[C@@]56CCCN5C[C@H](F)C6)nc4N4CCCn5nc(C(=O)NC)cc5C4)C3)c12` [Example 400, 5-(7-(8-ethyl-7-fluoro-3-hydroxynaphthalen-1-yl)-2-(((2R,7aS)-2-fluorohexahydro-1H-pyrrolizin-7a-yl)methoxy)-5,6,7,8-tetrahydropyrido[3,4-d]pyrimidin-4-yl)-N-methyl-5,6,7,8-tetrahydro-4H-pyrazolo[1,5-a][1,4]diazepine-2-carboxamide], for which the inhibition at 0.01 µM was 96% at KRas WT (single point, 10 nM compound); 96% at KRas G12A (single point, 10 nM compound, read-out: Binding to KRas (% inhibition at 10 nM) G12A); 99% at KRas G12C (single point, 10 nM compound, read-out: Binding to KRas (% inhibition at 10 nM) G12C); 99% at KRas G12S (single point, 10 nM compound, read-out: Binding to KRas (% inhibition at 10 nM) G12S); 95% at KRas G13D (single point, 10 nM compound, read-out: Binding to KRas (% inhibition at 10 nM) G13D); 96% at KRas Q61H (single point, 10 nM compound). The IC50 stood at 13.5 nM in the assay on MKN1 cells; 3790 nM in the assay on PSN1 cells (setting [1]); 2 nM with ASPC1 cells (Cisbio pERK HTRF); 5 nM with H727 cells (Cisbio pERK HTRF); 8 nM with A549 cells (Cisbio pERK HTRF); 32 nM in the assay with H460 cells (Cisbio pERK HTRF). Moreover, the midpoint of inhibition in the assay on HCT116 cells (Cisbio pERK HTRF), the IC50, lay at 94 nM.
On to `O=C1NC(=O)C2(CCCN(c3nc(OC[C@@]45CCCN4C[C@H](F)C5)nc4c3CCN(c3c5ccccc5cc5[nH]ncc35)C4)C2)N1` (stereo partly drawn) [Example 472, 7-(7-(1H-benzo[f]indazol-4-yl)-2-(((2R,7aS)-2-fluorohexahydro-1H-pyrrolizin-7a-yl)methoxy)-5,6,7,8-tetrahydropyrido[3,4-d]pyrimidin-4-yl)-1,3,7-triazaspiro [4.5]decane-2,4-dione], for which the half-inhibitory concentration (IC50) at KRas WT was below 2 nM; at KRas G12A, below 2 nM; at KRas G12C it was 2 nM; at KRas G12S, 3 nM; on KRas G13D, 2 nM; at KRas Q61H, below 2 nM. Moreover, the IC50 in the assay on ASPC1 cells (Cisbio pERK HTRF) was 1740 nM; in the assay with H727 cells (Cisbio pERK HTRF), 907 nM. For the same compound, the inhibition at 0.1 µM is -2% in the assay with A549 cells, 19% with H460 cells, 8% in the assay on HCT116 cells and 25% in the assay on H358 cells.
Regarding `CCc1c(F)ccc2cc(O)cc(N3CCc4c(nc(OC[C@@]56CCCN5C[C@H](F)C6)nc4N4CCCn5nc(C(=O)N6CCN(C7COC7)CC6)cc5C4)C3)c12` [Example 504, (5-(7-(8-ethyl-7-fluoro-3-hydroxynaphthalen-1-yl)-2-(((2R,7aS)-2-fluorotetrahydro-1H-pyrrolizin-7a(5H)-yl)methoxy)-5,6,7,8-tetrahydropyrido[3,4-d]pyrimidin-4-yl)-5,6,7,8-tetrahydro-4H-pyrazolo[1,5-a][1,4]diazepin-2-yl)(4-(oxetan-3-yl)piperazin-1-yl)methanone], the IC50 amounted to 3130 nM with PSN1 cells (setting [1]); 3 nM with ASPC1 cells (Cisbio pERK HTRF); 8 nM with H727 cells (Cisbio pERK HTRF); 19 nM with A549 cells (Cisbio pERK HTRF); 18 nM in the assay on H460 cells (Cisbio pERK HTRF); 45 nM in the assay with HCT116 cells (Cisbio pERK HTRF). Besides, the IC50 with H358 cells (Cisbio pERK HTRF) was 2 nM. Also, the inhibition at 0.1 µM with ASPC1 cells is 100%; in the assay with H727 cells, 84%; in the assay with H460 cells, 89%; with HCT116 cells, 61%.
Take `CCSc1ccc2cc(O)cc(N3CCc4c(nc(OC[C@@]56CCCN5C[C@H](F)C6)nc4N4CCCC5(CNS(=O)(=O)N5)C4)C3)c2c1F` (stereo partly drawn) [Example 510, 7-(7-(7-(ethylthio)-8-fluoro-3-hydroxynaphthalen-1-yl)-2-(((2R,7aS)-2-fluorohexahydro-1H-pyrrolizin-7a-yl)methoxy)-5,6,7,8-tetrahydropyrido[3,4-d]pyrimidin-4-yl)-2-thia-1,3,7-triazaspiro[4.5]decane 2,2-dioxide]: the IC50 at KRas WT was 107 nM; on KRas G12A, 107 nM; on KRas G12C, 80 nM; on KRas G12S, 89 nM; on KRas G13D it was 89 nM; on KRas Q61H, 120 nM. The IC50 with ASPC1 cells (Cisbio pERK HTRF) worked out at 2800 nM; with H727 cells (Cisbio pERK HTRF) it was 4340 nM. The inhibition at 0.1 µM in the assay on ASPC1 cells was 16%; with H727 cells it was 19%; in the assay on A549 cells it was -1%; in the assay on H460 cells it was 9%; with HCT116 cells it was 0%; in the assay on H358 cells it was -5%.
On to `CCc1c(F)ccc2cc(O)cc(N3CCc4c(nc(OC[C@@]56CCCN5C[C@H](F)C6)nc4N4CCCn5nc(C(=O)N6CC[C@@H]7CC[C@H]6C7)cc5C4)C3)c12` [Example 618, ((1S,5S)-2-azabicyclo[3.2.1]octan-2-yl)(5-(7-(8-ethyl-7-fluoro-3-hydroxynaphthalen-1-yl)-2-(((2R,7aS)-2-fluorotetrahydro-1H-pyrrolizin-7a(5H)-yl)methoxy)-5,6,7,8-tetrahydropyrido[3,4-d]pyrimidin-4-yl)-5,6,7,8-tetrahydro-4H-pyrazolo[1,5-a][1,4]diazepin-2-yl)methanone], for which the IC50 with PSN1 cells (3 hr compound incubation) was determined as 1390 nM; in the assay on ASPC1 cells, 5 nM; in the assay on H727 cells, 4 nM; with A549 cells, 15 nM; in the assay with H460 cells, 26 nM; in the assay with HCT116 cells, 59 nM. Besides, 3 nM corresponded to half-maximal inhibition with H358 cells (IC50).

The record behind these values is patent US20250368649A1, “TETRAHYDROPYRIDOPYRIMIDINE PAN-KRAS INHIBITORS” (Mirati Therapeutics, Inc., priority 2022, published 2025).
